This is one part of the list. Values come from read counts of a selection and are noisy. Scores sum up all selected molecules that hold the word; the word was not tested alone.
Experiments:
Assay in all cases: 6-mer SELEX enrichment z-score vs GST control; IMP3 is the RNA-binding protein IGF2BP3; higher = more enriched by binding
[1] = system: IMP3 KH1-4; settings: construct: KH1-4 (164-579); SELEX round: R4
Procedure: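 SELEX-seq with GST-tagged IMP3 KH1-4 (Pro164-Lys579) and an N40 RNA pool, round 4. 6-mer z-score of sequence-tag enrichment normalised to the corresponding GST SELEX round; RNA k-mers written as DNA (T for U).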

[2] = system: IMP3 RRM1-2; settings: construct: RRM1-2 (1-163); SELEX round: R2
Procedure: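 SELEX-seq with GST-tagged IMP3 RRM1-2 (Met1-Asn163) and an N40 RNA pool, round 2. 6-mer enrichment z-score normalised to GST SELEX. RNA written as DNA (T = U).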

[3] = molecular target: IMP3 full-length (UniProt O00425); settings: construct: FL IMP3 (1-579); SELEX round: R4
Procedure: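 SELEX-seq with GST-tagged full-length IMP3 and an N40 RNA pool, round 4. Each 6-mer is scored as an enrichment z-score of sequence tags containing it, normalised to the matching GST SELEX round. RNA written as DNA (T = U).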

[4] = system: IMP3 KH1-2; settings: construct: KH1-2 (164-376); SELEX round: R4
Procedure: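 SELEX-seq with GST-tagged IMP3 KH1-2 (Pro164-Phe376) and an N40 RNA pool, round 4 (stringent 300/600 mM KCl washes). 6-mer z-score of sequence-tag enrichment normalised to the corresponding GST SELEX round; RNA k-mers written as DNA (T for U).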

[5] = system: IMP3 KH3-4; settings: construct: KH3-4 (377-579); SELEX round: R4
Procedure: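 SELEX-seq with GST-tagged IMP3 KH3-4 (Pro377-Lys579) and an N40 RNA pool, round 4. 6-mer z-score of sequence-tag enrichment normalised to the corresponding GST SELEX round; RNA k-mers written as DNA (T for U).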

IMP3 KH1-4, sequence (chain, as listed by the source): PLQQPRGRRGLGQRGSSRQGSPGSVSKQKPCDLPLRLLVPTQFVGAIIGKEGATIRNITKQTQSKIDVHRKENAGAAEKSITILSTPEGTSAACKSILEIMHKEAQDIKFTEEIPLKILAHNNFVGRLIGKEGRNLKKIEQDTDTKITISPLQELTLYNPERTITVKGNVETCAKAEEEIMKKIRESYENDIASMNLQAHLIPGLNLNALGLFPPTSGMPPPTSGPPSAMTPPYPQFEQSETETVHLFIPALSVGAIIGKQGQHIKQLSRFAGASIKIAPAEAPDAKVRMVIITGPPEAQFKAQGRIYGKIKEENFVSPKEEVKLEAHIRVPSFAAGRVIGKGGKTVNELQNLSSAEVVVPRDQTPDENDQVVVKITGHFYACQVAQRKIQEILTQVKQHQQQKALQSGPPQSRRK
IMP3 KH3-4, sequence (chain, as listed by the source): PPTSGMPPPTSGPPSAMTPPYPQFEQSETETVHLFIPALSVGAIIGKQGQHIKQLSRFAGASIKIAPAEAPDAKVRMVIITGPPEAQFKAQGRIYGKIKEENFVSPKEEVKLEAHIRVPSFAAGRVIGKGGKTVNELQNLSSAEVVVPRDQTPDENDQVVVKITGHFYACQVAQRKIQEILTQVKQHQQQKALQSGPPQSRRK
IMP3 KH1-2, sequence (chain, as listed by the source): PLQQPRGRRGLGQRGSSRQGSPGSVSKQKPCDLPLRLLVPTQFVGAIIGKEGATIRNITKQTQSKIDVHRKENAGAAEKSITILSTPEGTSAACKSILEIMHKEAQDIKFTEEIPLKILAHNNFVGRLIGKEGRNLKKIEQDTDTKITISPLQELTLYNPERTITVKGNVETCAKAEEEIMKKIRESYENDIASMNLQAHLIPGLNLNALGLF
UniProt O00425, sequence (O00425 whole entry): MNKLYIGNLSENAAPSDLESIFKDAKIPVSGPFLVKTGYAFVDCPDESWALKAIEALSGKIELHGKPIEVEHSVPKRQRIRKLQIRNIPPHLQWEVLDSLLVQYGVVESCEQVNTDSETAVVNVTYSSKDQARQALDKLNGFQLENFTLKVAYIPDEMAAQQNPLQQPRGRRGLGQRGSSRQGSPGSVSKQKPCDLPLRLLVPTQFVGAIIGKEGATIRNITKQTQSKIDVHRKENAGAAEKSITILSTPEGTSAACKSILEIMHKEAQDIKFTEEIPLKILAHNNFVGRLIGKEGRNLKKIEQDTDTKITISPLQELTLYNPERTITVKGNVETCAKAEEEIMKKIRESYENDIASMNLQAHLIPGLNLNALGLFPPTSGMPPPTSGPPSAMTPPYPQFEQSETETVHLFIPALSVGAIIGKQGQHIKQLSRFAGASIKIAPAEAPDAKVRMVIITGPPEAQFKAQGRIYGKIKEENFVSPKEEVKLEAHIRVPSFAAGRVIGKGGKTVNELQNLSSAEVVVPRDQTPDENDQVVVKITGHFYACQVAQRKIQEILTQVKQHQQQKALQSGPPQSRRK
IMP3 RRM1-2, sequence (chain, as listed by the source): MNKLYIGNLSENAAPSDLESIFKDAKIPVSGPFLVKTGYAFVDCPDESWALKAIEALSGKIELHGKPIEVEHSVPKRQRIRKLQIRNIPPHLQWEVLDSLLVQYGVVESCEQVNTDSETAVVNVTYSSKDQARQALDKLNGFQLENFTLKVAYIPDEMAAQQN

Row | Sequence | 6-mer SELEX enrichment z-score [1] | 6-mer SELEX enrichment z-score [2] | 6-mer SELEX enrichment z-score [3] | 6-mer SELEX enrichment z-score [4] | 6-mer SELEX enrichment z-score [5]
1 | CCACAT | 0.984 | 1.5 | 1.21 | 0.933 | 0.192
2 | GTGTAT | -0.139 | 0.196 | -0.217 | -0.13 | 0.114
3 | TCACGG | -0.048 | 0.53 | 0.909 | -0.253 | -0.208
4 | ACGTAA | -0.839 | -0.904 | -1.04 | -0.963 | -0.568
5 | ACTTGG | -0.635 | 0.27 | -0.112 | -0.565 | -0.572
6 | GATGTA | 0.332 | -0.444 | -0.309 | 0.111 | 0.518
7 | AGGTAT | -0.122 | 0.241 | 0.008 | -0.069 | 0.153
8 | TTCCAC | 0.835 | 0.422 | 0.09 | 0.722 | 0.092
9 | GGAACT | -0.261 | -0.58 | -0.421 | -0.328 | -0.265
10 | GGGTAT | -0.027 | 0.332 | 0.16 | 0.129 | 0.279
11 | TGAAAG | -0.177 | -1.19 | -0.909 | -0.375 | 0.319
12 | TGATCG | -0.073 | -0.152 | -0.051 | -0.266 | -0.05
13 | GGTTGT | -0.003 | 0.496 | 0.056 | 0.06 | 0.246
14 | GTGAGG | 0.865 | -0.042 | 0.518 | 0.729 | 0.795
15 | AACCTC | -1.4 | -0.486 | -1.34 | -1.27 | -1.84
16 | GTGGGA | 0.156 | 0.054 | 0.094 | 0.287 | 0.332
17 | GGGAGA | 1.1 | -0.644 | 0.173 | 1.14 | 1.11
18 | TAGTTG | -0.188 | 0.386 | -0.167 | -0.184 | -0.007
19 | ATATTT | 1.87 | 0.358 | 0.636 | 1.82 | 2.68
20 | AGTCTC | -0.276 | 0.613 | 0.586 | -0.133 | -0.128
21 | GTCGCA | 0.833 | 0.31 | 0.93 | 0.545 | 0.435
22 | CCTGGA | -0.745 | -0.661 | -0.79 | -0.745 | -0.926
23 | GGGAAT | 0.747 | -0.366 | 0.115 | 0.707 | 0.928

Row | Sequence | 6-mer SELEX enrichment z-score [1] | 6-mer SELEX enrichment z-score [2] | 6-mer SELEX enrichment z-score [3] | 6-mer SELEX enrichment z-score [4] | 6-mer SELEX enrichment z-score [5]
24 | GTTTTT | 0.186 | 0.422 | 0.094 | 0.259 | 0.487
25 | AAGCGA | -1.82 | -1.11 | -1.26 | -1.81 | -1.57
26 | TAGACA | 0.383 | 0.133 | 0.047 | 0.306 | 0.446
27 | AATTGG | -0.12 | -0.153 | -0.243 | -0.168 | 0.099
28 | TCTTCC | 0.489 | 0.241 | -0.129 | 0.426 | 0.002
29 | TGGTCG | 0.236 | 0.402 | 0.521 | 0.252 | 0.286
30 | TTTCGG | -0.021 | 0.336 | 0.225 | -0.046 | 0.186
31 | TGGTCC | -0.288 | 0.217 | 0.149 | -0.234 | -0.315
32 | AGGCGG | 0.408 | 0.02 | 0.897 | 0.589 | 0.545
33 | TTGCAT | 0.737 | 0.437 | 0.486 | 0.502 | 0.553
34 | AATCGG | -0.148 | -0.252 | 0.078 | -0.444 | -0.211
35 | AGACAA | 0.088 | -0.117 | -0.33 | 0.181 | 0.363
36 | GTTCCG | -0.116 | -0.038 | 0.021 | -0.066 | -0.199
37 | ATTCTA | 0.878 | 0.252 | 0.168 | 0.847 | 0.966
38 | GTGTAA | -0.269 | -0.321 | -0.577 | -0.386 | -0.082
39 | GTTGTC | -0.246 | 0.347 | -0.015 | -0.214 | -0.151
40 | CGGAAT | -0.007 | -0.526 | -0.317 | -0.175 | 0.114
41 | ACTAGT | 0.212 | 0.141 | 0.036 | 0.076 | 0.239
42 | GATTGC | 0.124 | -0.323 | -0.301 | 0.034 | 0.183
43 | ATCTAG | -0.171 | 0.142 | -0.126 | -0.24 | -0.079
44 | GCGGTG | 0.084 | 0.178 | 0.311 | 0.187 | 0.273
45 | ATCCTG | -0.524 | -0.123 | -0.589 | -0.626 | -0.79

Source: the supplement of paper PMC6531468
